# Data published in the supplement of paper PMC3334620.
# In all, about 33,000 sequences were measured (“E-score (-0.5 to 0.5)”: median about -0.032, highest 2% from about 0.36 on). This is one part of the list.
# Target: T1, Sko1 (UniProt Q02100)
# T1 sequence: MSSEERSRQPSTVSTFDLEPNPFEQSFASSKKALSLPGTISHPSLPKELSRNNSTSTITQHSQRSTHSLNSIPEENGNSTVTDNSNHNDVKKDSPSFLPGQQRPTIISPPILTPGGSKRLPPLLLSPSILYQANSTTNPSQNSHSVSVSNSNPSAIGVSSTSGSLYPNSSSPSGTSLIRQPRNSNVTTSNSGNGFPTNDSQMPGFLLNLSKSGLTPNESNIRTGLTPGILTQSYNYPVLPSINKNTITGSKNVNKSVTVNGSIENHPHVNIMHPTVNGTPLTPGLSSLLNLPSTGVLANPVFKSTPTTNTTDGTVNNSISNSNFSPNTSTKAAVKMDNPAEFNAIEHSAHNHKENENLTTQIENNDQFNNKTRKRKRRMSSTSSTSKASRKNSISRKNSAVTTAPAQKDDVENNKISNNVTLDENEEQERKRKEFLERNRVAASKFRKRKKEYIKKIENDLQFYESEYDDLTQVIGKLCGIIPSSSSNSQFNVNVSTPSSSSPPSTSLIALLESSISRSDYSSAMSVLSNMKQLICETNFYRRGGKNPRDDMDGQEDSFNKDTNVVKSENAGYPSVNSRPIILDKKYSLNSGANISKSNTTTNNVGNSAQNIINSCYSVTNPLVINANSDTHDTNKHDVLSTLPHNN
# Assay: PBM E-score (8-mer binding enrichment) (E-score (-0.5 to 0.5)); higher = stronger / more preferred TF binding; most listed sequences are background and not binding sites
# Conditions: protein concentration: 200 nM; construct: GST-full length
# Summary of the method: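 GST-tagged yeast TFs (full-length or DNA-binding domain) were made by PURExpress in vitro transcription/translation and applied at about 100-200 nM to universal all-10-mer Agilent arrays. The arrays were made double-stranded by primer extension, on fresh or once-stripped slides. Bound protein was detected with fluorescent anti-GST, and scans were normalised with masliner. Each ungapped eight-base word, pooled with its reverse complement, received an E-score (modified Wilcoxon-Mann-Whitney statistic) from the Universal PBM Analysis Suite.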
row,Sequence,PBM E-score
1,GCTCCAAC,-0.0244
2,ACGATCAG,0.0957
3,TGAAAGCA,0.0734
4,CTGAGCCA,-0.178
5,CCCAGAAG,-0.209
6,CAACCAGA,-0.0288
7,AGCCTTGG,-0.118
8,AGAATACT,0.141
9,AACTAGTA,0.0323
10,AAGTGTCC,-0.139
11,AACGAGTT,-0.0345
12,CAACTAAA,0.078
13,GCACTCTA,-0.117
14,ATGTATGA,0.288
15,CCCATTGA,-0.0272
16,GCCATCAC,0.09
17,CGAGGCTA,-0.058
18,CAAGTAAC,0.137
19,AGTCAAAC,0.0666
20,GCAAACAA,0.115
21,CAACGTTG,0.307
22,GGCGTCCA,-0.122
23,CTCGTTAA,0.0188
24,AATTCGGA,-0.0118

row,Sequence,PBM E-score
1,ACGTTTAA,0.406
2,ATCTTTGC,0.0693
3,ACATAGGG,-0.181
4,GCTTTACA,0.00439
5,GATAAACA,0.0798
6,CGGATCAG,-0.216
7,ACGGGTAT,0.0333
8,CAACATCG,0.185
9,GGCAACTA,-0.153
10,CACGCGGC,-0.144
11,CTCTGTTC,-0.183
12,CTAGAAAA,0.0764
13,ATGAGCTC,0.109
14,CAATACTC,0.117
15,CGATGGGC,-0.195
16,AAGGACAC,-0.0689
17,ACTGTCGC,-0.274
18,GGTAAAAA,0.0275
19,GCTAAAGA,0.099
20,TATCCAAA,0.156
21,TCTGATAA,-0.0319
22,GTCCTTTA,-0.126
23,ACCTCGTC,-0.0972
24,GGCGGGAC,-0.212

row,Sequence,PBM E-score
1,CGCGCCAG,-0.0558
2,GGCTTCGA,-0.109
3,CACAAAGA,-0.0193
4,AGGACCAC,-0.2
5,GATTCCAC,0.0919
6,ACGTAGAT,0.452
7,GGTGGAAA,-0.203
8,GTGCCTCA,-0.118
9,GGATAATA,0.126
10,GTCGCAAC,0.0039
11,CTAACATA,0.197
12,AAAGATTC,0.0819
13,AAGGTGAC,0.0942
14,GGCACGGA,-0.233
15,CTCTTGTA,-0.113
16,CCTCTCTA,-0.354
17,GGGTACAC,-0.108
18,AAAACCAC,0.144
19,GCGCGTGA,0.191
20,GACGCTTA,0.035
21,CTCCATAC,0.0106
22,ACACTAGG,-0.0781
23,GAAGCTCC,-0.251
24,CATACAGC,-0.206

row,Sequence,PBM E-score
1,CCCAAGCA,-0.117
2,GCTCCAGC,-0.2
3,GGGAGCAA,-0.287
4,GCCACGGC,-0.175
5,AGTCGTAA,0.231
6,GCCGGAAA,-0.149
7,CTAAGGAG,-0.236
8,CCCGTATC,-0.275
9,TAGTCACA,0.0679
10,GGTTGCAC,-0.106
11,GAGCCTCA,-0.349
12,GAATCTAA,0.121
13,CATCCTAC,-0.0257
14,AGCCACTG,-0.0844
15,AAAGGAAT,0.0299
16,AGCTGGCC,-0.143
17,GATAGGGC,-0.334
18,GCGATTTA,-0.0203
19,CCCCCGAA,-0.201
20,CTGGTTGC,0.0168
21,CAGTAGAC,0.139
22,GAATTAAC,0.252
